About 14,000 (4.5%) of roughly 310,000 compounds showed an effect of 50% or more. Effects have a minus sign here. Some of the results follow.
The compounds below were run against human ether-à-go-go-related gene (hERG) potassium channel (human, UniProt Q12809) (assay: primary screen, population patch clamp on CHO cells stably expressing hERG).
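Note: peak tail current of the secondary pulse compared with the same well before compound.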

Chain of human ether-à-go-go-related gene (hERG) potassium channel (Q12809 whole entry, looked up): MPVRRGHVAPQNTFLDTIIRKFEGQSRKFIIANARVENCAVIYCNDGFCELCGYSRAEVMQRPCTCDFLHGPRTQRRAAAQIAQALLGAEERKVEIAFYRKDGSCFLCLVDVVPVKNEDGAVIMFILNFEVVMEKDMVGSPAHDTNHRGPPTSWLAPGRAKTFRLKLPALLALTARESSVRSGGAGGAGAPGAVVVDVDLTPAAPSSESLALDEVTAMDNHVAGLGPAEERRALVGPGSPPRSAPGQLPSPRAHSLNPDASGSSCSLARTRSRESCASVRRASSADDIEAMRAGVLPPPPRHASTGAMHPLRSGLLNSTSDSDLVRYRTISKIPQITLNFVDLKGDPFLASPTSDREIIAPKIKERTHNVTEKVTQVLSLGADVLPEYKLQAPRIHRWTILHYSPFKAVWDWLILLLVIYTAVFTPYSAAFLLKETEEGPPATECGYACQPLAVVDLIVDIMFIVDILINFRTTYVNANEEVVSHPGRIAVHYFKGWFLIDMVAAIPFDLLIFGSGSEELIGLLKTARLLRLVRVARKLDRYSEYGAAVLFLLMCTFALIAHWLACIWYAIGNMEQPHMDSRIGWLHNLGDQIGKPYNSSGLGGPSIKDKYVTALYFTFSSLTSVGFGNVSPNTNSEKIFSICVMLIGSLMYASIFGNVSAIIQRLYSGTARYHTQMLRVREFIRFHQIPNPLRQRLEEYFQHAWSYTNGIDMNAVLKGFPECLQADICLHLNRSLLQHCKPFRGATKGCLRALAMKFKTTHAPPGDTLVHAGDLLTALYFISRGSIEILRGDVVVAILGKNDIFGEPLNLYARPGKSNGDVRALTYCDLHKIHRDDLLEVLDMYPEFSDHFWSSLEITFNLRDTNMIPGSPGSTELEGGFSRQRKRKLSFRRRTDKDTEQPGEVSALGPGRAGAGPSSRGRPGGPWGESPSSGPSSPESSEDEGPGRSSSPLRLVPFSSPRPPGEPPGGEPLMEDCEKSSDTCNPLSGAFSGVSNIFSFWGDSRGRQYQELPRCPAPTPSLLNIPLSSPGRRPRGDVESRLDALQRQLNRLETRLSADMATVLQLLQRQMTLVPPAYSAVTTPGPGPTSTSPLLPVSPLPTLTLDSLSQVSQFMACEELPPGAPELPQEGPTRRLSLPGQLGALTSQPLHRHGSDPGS

| Compound | hERG current change (%, negative = inhibition) at 10uM |
| --- | --- |
| COC(=O)c1cc(NC(=O)Cn2nc(C)n3cccc3c2=O)cc(C(=O)OC)c1 | 4.88% |
| CC1CN(C(=O)c2cccs2)CCN1C(=O)c1cccs1 (centres unmarked) | 3.29% |
| COc1ccc(C(=O)OCC(=O)Nc2ccccc2)cc1[N+](=O)[O-] | 10.9% |
| CCCCNC(=O)Nc1ccccn1 | 7.81% |
| Clc1ccc(OCc2nnnn2-c2ccccc2)cc1 | -17.1% |
| CC(Sc1nncn1C)C(=O)NCc1ccc2c(c1)OCO2 (centres unmarked) | 34.9% |
| NS(=O)(=O)c1ccc(NC(=S)NCc2ccc3c(c2)OCO3)cc1 | 28.2% |
| CCc1ccc(NC2=CC(=O)CC(c3ccco3)C2)cc1 (centres unmarked) | 5.49% |
| Cc1cc(C)c(NC(=O)CN2CCN(c3ccccn3)CC2)c(C)c1 | -14.6% |
| COc1cc(C(=O)NCCC2=CCCCC2)ccc1OC1CCN(C(C)=O)CC1 | 2.98% |
| Nc1c(Cl)c(Cl)nc(C(=O)N/N=C/c2ccco2)c1Cl | 13.6% |
| COC(=O)C1=CO[C@@H](O[C@@H]2O[C@H](CO)[C@@H](O)[C@H](O)[C@H]2O)[C@H]2[C@@H]1C(=O)C[C@@H]2C | 23.3% |
| CC1CN(C(=S)NC(=O)C2CCCCC2)CC(C)O1 (centres unmarked) | 1.44% |
| COc1cc(OC)c(NC(=O)CN(C)S(=O)(=O)c2ccc(-c3ccc(=O)[nH]n3)s2)cc1Cl | -56.5% |
| CCCc1nnc(NC(=O)C23CC4CC(CC(C4)C2)C3)s1 | 18.8% |
| COC(=O)CCCNC(=O)CCc1nnc(-c2ccc(-c3ccccc3)cc2)o1 | 11.5% |
| O=C(CN(C(=O)CNC(=O)c1ccco1)c1ccc2c(c1)OCCO2)NC1CCCC1 | 6.06% |
| O=C(NCC1(N2CCCCC2)CCCCC1)c1ccc(S(=O)(=O)N2CCCC2)cc1 | -21.7% |
| O=C(O)c1ccc2c(c1)-c1nc3ccccc3n1C2=O | 14% |

| Compound | hERG current change (%, negative = inhibition) at 10uM |
| --- | --- |
| Cc1cc(-c2ccc(S(=O)(=O)N3CCN(c4ccc(F)cc4)CC3)s2)on1 | 10.5% |
| CCNC(=O)N1CCC(n2nccc2NC(=O)CCOc2ccccc2)CC1 | 9.99% |
| Cc1sc(NC(=O)C2=COCCO2)nc1-c1ccc(Cl)cc1 | 13% |
| CCc1nn2c(=O)cc(COC(=O)c3cc(Cl)c(OC)c(OC)c3)nc2s1 | -69.5% |
| CCN(CCC(=O)Nc1cc([N+](=O)[O-])ccc1OC)Cc1ccccc1 | -34.9% |
| COC(=O)c1sc2nc(CSc3nc4ccc(C)cc4[nH]3)[nH]c(=O)c2c1C | 17.4% |
| CCO[C@@H]1OC(C(=O)Nc2ccccc2)=C[C@H](c2csc3ccccc23)[C@H]1CCCO | -45.8% |
| CSc1nc(-c2ccc(C)cc2)nc(C(Cl)Cl)n1 | 6.95% |
| Cc1c(C(=O)NN2CCOCC2)oc2ccccc12 | 16.5% |
| O=C(NCCc1cccc(F)c1)C1CCN(S(=O)(=O)c2ccc(F)cc2)CC1 | -2.7% |
| C/C(Cl)=C/Cn1c(=O)c2c(nc(Br)n2Cc2ccccc2)n(C)c1=O | -5.85% |
| COc1ccc(CCNC(=O)Cn2c(=O)[nH]c3ccsc3c2=O)cc1OC | 11% |
| CCC(CO)NC(=O)c1cc2c(s1)CCC2 (centres unmarked) | 1.21% |
| N#C/C(=C\c1c(N2CCN(c3ccccc3)CC2)nc2ccccn2c1=O)C(N)=O | -43% |
| CC(C)C[C@H](NC(=O)c1[nH]cnc1C(=O)Nc1ccc(CNC(=O)OC(C)(C)C)cc1)C(=O)OCc1ccccc1 | 9.41% |
| COC(=O)CN(c1ccccc1)S(=O)(=O)c1cc(Br)ccc1OC | -25.5% |
| COc1ccc(Nc2nc(N)nc(CSCCO)n2)cc1 | -7.19% |
| Cc1cc(-c2cc(C(=O)NC3CCCC3)on2)nc(NCC2CC2)n1 | 4.61% |
| Cn1c(=O)c2c(nc(NC(Cc3ccccc3)C(=O)O)n2Cc2ccccc2)n(C)c1=O (centres unmarked) | -1.44% |

| Compound | hERG current change (%, negative = inhibition) at 10uM |
| --- | --- |
| CCN1CCCn2c1nc1c2c(=O)n(C)c(=O)n1C | 4.13% |
| O=c1c2c3c(sc2nc2n1CCCCC2)C(O)CCC3 (centres unmarked) | 3.27% |
| O=C(OCN1C(=O)c2ccccc2C1=O)c1cccs1 | 9.62% |
| CCOCCCNC(=O)c1cc(=O)n(Cc2cccc(C)c2)c2ccccc12 | -43.6% |
| Cc1ccc(-c2c(C)sc3nc(CN4CCN(CC(=O)NC5CC5)CC4)[nH]c(=O)c23)cc1 | -71.5% |
| COc1cccc(C(=O)N2CCC(C(=O)NCc3ccco3)CC2)c1 | -14.9% |
| COc1ccc(OC)c(NC(=O)CSc2nnc(-c3cnccn3)n2C)c1 | 9.4% |
| CC(C)C(C)NC(=O)COC(=O)c1cc(S(=O)(=O)N(C)C)ccc1N1CCCC1 (centres unmarked) | 7.36% |
| Cc1ccc(S(=O)(=O)Oc2ccc(/C=N/NC(=O)c3nn(C)cc3Cl)cc2)cc1 | 5.56% |
| C=CCN(C(=O)CCc1ccccc1OC)c1nc(-c2ccc(S(C)(=O)=O)cc2)cs1 | 6.27% |
| O=c1[nH]c2ccc(Cl)cc2c(-c2ccccc2)c1N1CCN(c2ccccn2)CC1 | 6.61% |
| Cc1cc(=O)n2[nH]c(C)c(-c3ccccc3)c2n1 | 20.4% |
| OCCCn1c(CCNc2nc(-c3ccc(Cl)cc3)cs2)nc2cc(C(F)(F)F)ccc21 | -0.705% |
| CCC(=O)Nc1cccc(-c2cn3ccsc3n2)c1 | 7.63% |
| CCCCOc1ccc(NC(=O)C(=O)NCCC2=CCCCC2)cc1 | 2.25% |
| COc1ccc(/C=N/NC(=O)C2C3CCCCC32)cc1OC (centres unmarked) | 4.78% |
| COc1ccc(NC(=O)CSc2n[nH]c(C)c2[N+](=O)[O-])cc1 | 8.06% |
| COc1cccc(C(C(=O)NC(C)(C)C)N(CCc2ccccc2)C(=O)CCC(=O)Nc2cc(C)on2)c1OC (centres unmarked) | -1.05% |
